From PubChem BioAssay AID1461 (National Center for Advancing Translational Sciences (NCATS), 2008)
Screen size: about 220,000 compounds; about 2,300 (1%) were called active. The inconclusive results got no clear call from the source; some entries with a clear call stand among them for comparison. Calls follow the shape of the dose curve; as a rule, active = well fitted inhibition curve with a large enough effect; inconclusive = small, poorly fitted or top-dose-only effect, or effect the other way; inactive = no such curve, though single readings can be large or run the other way. No potency is given beside an inconclusive call; the fits are too rough.

target: Neuropeptide S receptor (Homo sapiens) (UniProt Q6W5P4); test: qHTS Assay for Antagonists of the Neuropeptide S Receptor: cAMP Signal Transduction; conditions: CHO-NPSR cells, cAMP TR-FRET, antagonist mode; activity change, negative = inhibition: at 38.3 µM (top of the series) unless noted; also: nearly all actives have a fitted effect of over 50% in size
% is scaled to controls: 0 for no effect and ±100 for the full control effect; potency is read from the fitted curve at half-maximal effect; tags tell the direction and shape of the fitted curve.

Chain of UniProt Q6W5P4 (Q6W5P4 whole entry, looked up): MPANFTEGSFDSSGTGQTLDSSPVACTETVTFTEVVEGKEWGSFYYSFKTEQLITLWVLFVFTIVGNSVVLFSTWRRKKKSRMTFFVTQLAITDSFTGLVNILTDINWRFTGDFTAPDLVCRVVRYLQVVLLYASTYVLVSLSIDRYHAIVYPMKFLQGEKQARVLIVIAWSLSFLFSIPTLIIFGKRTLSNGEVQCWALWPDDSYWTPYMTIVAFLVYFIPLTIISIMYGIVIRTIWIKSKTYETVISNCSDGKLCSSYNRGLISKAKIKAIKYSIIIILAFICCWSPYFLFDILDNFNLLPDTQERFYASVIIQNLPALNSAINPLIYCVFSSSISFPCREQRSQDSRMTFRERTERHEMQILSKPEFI

SMILES	Potency	activity change, negative = inhibition
CC1Cc2ccccc2N1C(=O)CSc1nnc(Cn2nnc3ccccc32)n1C (stereo not given)	inconclusive [inhibitor, partial curve, poor fit]	–
CN(Cc1ccccc1)C(=O)CC(c1ccccc1)c1cc(Cl)ccc1O (stereo not given)	inconclusive [inhibitor, single point]	–
CCSc1oc(-c2ccco2)nc1S(=O)(=O)c1ccc(F)cc1	inconclusive [inhibitor, single point]	–
Cc1ccc(C2CC(=O)NC(SCc3ccccc3)=C2C#N)o1 (stereo not given)	–	inactive: -19.4% [at 46.1 µM]
Cc1cc(OCCOc2cccc3cccnc23)c(C)cc1Cl	inconclusive [inhibitor, single point]	–
Cc1nc2scc(-c3ccccc3)c2c(=O)n1N=C1C=CC(=O)C=C1	–	inactive: 31.4%
O=C(O)c1ccc(N2C(=O)/C(=C\c3ccccc3)N=C2c2ccccc2)cc1	active: 6.31 µM	–
N#Cc1c(Sc2ncc(C(F)(F)F)cc2Cl)nsc1C/C=N\OCc1c(F)cccc1Cl	active: 10 µM	–
CCc1ccc(Oc2coc3cc(OCC(=O)Nc4cc(C)ccc4C)ccc3c2=O)cc1	inconclusive [inhibitor, single point]	–
O=C(c1ccco1)N1CCN(Cc2cn[nH]c2-c2cccc3ccccc23)CC1	–	inactive: 6.71%
O=C(Cc1cccs1)Nc1nnc(-c2ccc(F)cc2)s1	inconclusive [inhibitor, single point]	–
N#C/C(=C\c1ccncc1)c1nc2ccccc2[nH]1	–	inactive: -47.8%
O=C(OCC(=O)N1N=C(c2ccc(Cl)cc2)CC1c1ccco1)c1ccccc1O (stereo not given)	inconclusive [inhibitor, partial curve, poor fit]	–
C=CCn1c(-c2cccc(OCC)c2)n[nH]c1=S	–	inactive: 24.9%
O=c1c2sccc2nc(SCc2cc(=O)n3cc(Cl)ccc3n2)n1Cc1ccccn1	–	inactive: -8.88%
O=C(Cc1c(F)cccc1Cl)Nc1cccnc1	inconclusive [inhibitor, single point]	–
CCCSc1sc(C(=O)OC)c(-c2cccs2)c1C#N	inconclusive [activator, partial curve]	–
COc1ccc(CCNC(=O)CC(c2ccccc2)c2cccc(C)c2O)cc1OC (stereo not given)	active: 1 µM	–
O=C(Nc1nnc(-c2ccco2)o1)C1CC1	–	inactive: 11.7%
O=C(NCC(=O)N(Cc1cccs1)C(C(=O)NC1CCCCC1)c1ccco1)c1ccco1 (stereo not given)	–	inactive: 0.215%
CCN1CCN(CCCOc2ccccc2-c2ccccc2)CC1	–	inactive: 5.22%
CCOC(=O)c1cnc2c(-c3ccc(Cl)cc3)cnn2c1C	–	inactive: -16.7%
FC(F)(F)c1cnc(Sc2nc3nccc(-c4ccc(Cl)cc4)n3n2)c(Cl)c1	inconclusive [inhibitor, partial curve, poor fit]	–
Oc1cccc(/C=N/c2c(-c3ccco3)nc3ccccn23)c1	active: 10 µM	–

SMILES	Potency	activity change, negative = inhibition
CCOC(=O)c1nn(C23CC4CC(CC(C4)C2)C3)c2c1C(=O)N(c1ccc(C)cc1)C2=O	–	inactive: -10.9% [at 46.1 µM]
COC(=O)c1ccc(NC(=O)C2CCCN2S(=O)(=O)c2ccc(C)cc2)cc1 (stereo not given)	–	inactive: -17.4%
COc1ccc2c(c1)C(NC(C)=O)C(=O)N2C (stereo not given)	–	inactive: 1.67% [at 46.1 µM]
CCN1CCN(c2cc(C(C)(C)C)nc3c(-c4ccccc4)c(C)nn23)CC1	inconclusive [inhibitor, single point]	–
Cc1ccc(OCC(O)C(C)NC(C)C)c2c1CCC2 (stereo not given)	inconclusive [activator, single point]	–
CCCCN(CCCNC(=O)CN1C(=O)COc2ccccc21)c1ccccc1	inconclusive [inhibitor, partial curve]	–
Cc1c(C(=O)Nc2ccc(F)cc2)oc2ccc(S(=O)(=O)N3CCC4(CC3)OCCO4)cc12	inconclusive [inhibitor, partial curve]	–
CCCCSC1=N/C(=C/c2ccsc2)C(=O)N1c1ccccc1	–	inactive: -35.2%
Cc1cccc(-c2nc(=S)c3c(o2)CCCC3)c1	inconclusive [inhibitor, single point]	–
CC(C(O)c1ccc(O)cc1)N1CCC(Cc2ccccc2)CC1 (stereo not given)	inconclusive [inhibitor, single point]	–
Cc1sc(/C=C2\C(=O)ON=C2c2ccccc2)cc1Br	–	inactive: 2.01%
COc1ccc(-n2c(C)cc(C(=O)CSc3nn4c(=O)c(C(C)(C)C)nnc4s3)c2C)cc1	inconclusive [inhibitor, partial curve]	–
COc1cc2c(cc1OC)CN(C(=O)CCCOc1ccc(Cl)cc1Cl)CC2	inconclusive [inhibitor, single point]	–
N=c1n(CCO)c2ccccc2n1CCOc1ccc(Cl)cc1Cl	inconclusive [inhibitor, single point]	–
Cc1cc(C)cc(N(CC(=O)NC2CCCCC2)C(=O)c2ccc(C)s2)c1	inconclusive [inhibitor, single point]	–
Cc1cc(-c2n[nH]c(=S)o2)c(C)n1-c1ccccc1	–	inactive: -19.3% [at 46.1 µM]
CS(=O)(=O)N(CC(=O)N/N=C/c1cc2c(cc1Br)OCO2)c1ccccc1Br	inconclusive [inhibitor, partial curve]	–
O=C(O)CCSc1ncnc2sc(-c3ccccc3)cc12	inconclusive [activator, partial curve]	–
CCCNC(=O)c1[nH]c(C)c(C(C)=O)c1C	inconclusive [inhibitor, full curve, poor fit]	–
CCc1nc(Nc2ccc(N3CCN(C(C)=O)CC3)cc2)c2oc3ccccc3c2n1	inconclusive [inhibitor, single point]	–
COc1ccc(OC)c(C(c2nnnn2CC2CCCO2)N2CCN(C3CCCC3)CC2)c1 (stereo not given)	inconclusive [inhibitor, single point]	–
O=C(c1nc(-c2ccccc2)n(-c2ccccc2)n1)N1CCN(S(=O)(=O)c2ccccc2)CC1	inconclusive [inhibitor, single point]	–
CCC(C)(C)NC(=O)C(c1ccc(F)cc1)N(Cc1ccco1)C(=O)c1cnccn1 (stereo not given)	inconclusive [inhibitor, partial curve]	–
COc1ccccc1-c1c(C(F)(F)F)oc2cc(OC(=O)c3ccccc3[N+](=O)[O-])ccc2c1=O	inconclusive [inhibitor, single point]	–

SMILES	Potency	activity change, negative = inhibition
O=C(O)C1C2C=CC(C2)C1C(=O)NCCc1ccccc1 (stereo not given)	inconclusive [inhibitor, single point]	–
Cc1nnc(SCC(=O)N2CCc3ccccc32)s1	–	inactive: 4.64% [at 46.1 µM]
Cc1[nH]n(C(N)=S)c(=O)c1N=Nc1cc(-c2ccc(Br)cc2)[nH]n1	–	inactive: -18.2%
COc1ccc2cc3cc(C(=O)Nc4cc(OC)c(OC)c(OC)c4)oc3nc2c1	–	inactive: -5.75% [at 46.1 µM]
COc1ccc(-n2c(-c3ccccc3)cc3c2CCCC3=O)cc1	inconclusive [inhibitor, partial curve]	–
COc1cc(NC(=O)c2ccco2)c(OC)cc1NC(=O)Nc1ccc(Cl)cc1	inconclusive [inhibitor, full curve, poor fit]	–
COc1ccc(-c2ccc([C@H]3[C@H]4C=CC[C@@H](C)[C@@H]4C(=O)N3Cc3ccccc3)c(F)c2)cc1	inconclusive [inhibitor, single point]	–
CC(C)c1cc(C(N)=O)c(NC(=O)c2cccc(COc3ccc(Br)cc3)c2)s1	inconclusive [inhibitor, partial curve, poor fit]	–
CCOC(=O)N1CCN(Cc2nc3c(c(=O)n(C)c(=O)n3C)n2Cc2ccccc2C)CC1	–	inactive: -16.4% [at 46.1 µM]
O=C(c1ccc2ccccc2c1)N1CCN(c2ccc(O)cc2)CC1	inconclusive [inhibitor, single point]	–
COC(=O)c1[nH]c2ccccc2c1NC(=O)Oc1ccccc1	inconclusive [inhibitor, partial curve]	–
CC(=O)NCc1cccc(CNC(C)=O)n1	inconclusive [inhibitor, single point]	–
CNC(=O)c1snnc1-c1ccccc1	inconclusive [inhibitor, single point]	–
Cn1c(=O)n(CCc2ccccc2)c(=O)c2c1nc1n2CCCN1CCc1ccccc1	inconclusive [inhibitor, partial curve]	–
COc1ccc(-c2c(C#N)c(N)nc3c2c(=O)n(C)c(=O)n3C)cc1	inconclusive [inhibitor, single point]	–
CC(C)OC(=O)CN1C(=O)S/C(=C/c2ccc(N3CCCCC3)o2)C1=O	inconclusive [inhibitor, partial curve]	–
O=C(c1ccc(Cn2c(=O)[nH]c3ccccc3c2=O)cc1)N1CCN(c2ccccc2)CC1	inconclusive [inhibitor, single point]	–
Cc1cc2c(c(=O)n1CCN(C)C)C(c1ccc(Br)cc1)C(C#N)=C(N)O2 (stereo not given)	inconclusive [inhibitor, single point]	–
O=C(CSCc1ccc(Cl)cc1)Nc1cccc(C(=O)Nc2ccccc2C(=O)O)c1	inconclusive [inhibitor, single point]	–
CN(C)c1ccc(/C=C(\C#N)c2ccccn2)cc1	–	inactive: 3.99%
O=C(CCN1CCCC1Cc1ccccc1)c1ccc2c(c1)OCCO2 (stereo not given)	inconclusive [inhibitor, single point]	–
COc1cc2nc(NC(=O)c3ccco3)sc(=O)c2cc1OC	inconclusive [inhibitor, single point]	–
